Substitutions are numbered along the chain they refer to. These are yes or no findings as the source states them, for the method shown. Some results given as binding are weak or reduced against the parent protein; the word gives no strength.

Sequences of proteins named here, by UniProt entry; tags and fusion partners are left off. A change or cut given only in a name is not applied to a line headed by its entry.
UniProt P78543: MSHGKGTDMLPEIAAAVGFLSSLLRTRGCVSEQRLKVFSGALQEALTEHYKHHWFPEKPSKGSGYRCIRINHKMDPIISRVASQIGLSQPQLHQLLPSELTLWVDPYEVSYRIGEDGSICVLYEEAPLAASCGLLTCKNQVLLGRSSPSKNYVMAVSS
UniProt Q9UIV1: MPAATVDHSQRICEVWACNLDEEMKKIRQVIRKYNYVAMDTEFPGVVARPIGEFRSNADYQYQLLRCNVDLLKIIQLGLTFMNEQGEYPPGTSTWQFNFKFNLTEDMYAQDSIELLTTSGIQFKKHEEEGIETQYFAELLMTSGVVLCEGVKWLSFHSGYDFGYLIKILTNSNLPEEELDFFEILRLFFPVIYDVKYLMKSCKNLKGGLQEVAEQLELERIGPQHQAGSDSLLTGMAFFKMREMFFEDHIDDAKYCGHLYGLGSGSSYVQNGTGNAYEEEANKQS
UniProt Q9UFF9: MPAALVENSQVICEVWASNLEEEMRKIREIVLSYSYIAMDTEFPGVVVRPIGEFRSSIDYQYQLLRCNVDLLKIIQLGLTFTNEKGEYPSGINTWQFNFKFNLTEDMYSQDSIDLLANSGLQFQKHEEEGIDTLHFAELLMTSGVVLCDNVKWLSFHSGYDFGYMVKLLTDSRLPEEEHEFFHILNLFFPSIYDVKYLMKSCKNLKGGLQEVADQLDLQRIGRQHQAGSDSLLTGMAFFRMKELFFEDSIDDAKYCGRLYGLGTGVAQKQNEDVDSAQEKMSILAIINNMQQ

This note sets out measurements from PMC3517456.

Common to all, as to assay: two-hybrid; yeast strain YRG-2; BTG2 or TOB1 fused to the GAL4 DNA-binding domain, Caf1a or Caf1b fused to the GAL4 activation domain; LacZ reporter under five GAL4 consensus sequences; β-galactosidase activity (Beta-GLO) normalised to OD600; triplicate
For assay [1], the target named is T1, Gal4-DNA binding domain-TOB1 (human) (UniProt P50616).
T1 sequence: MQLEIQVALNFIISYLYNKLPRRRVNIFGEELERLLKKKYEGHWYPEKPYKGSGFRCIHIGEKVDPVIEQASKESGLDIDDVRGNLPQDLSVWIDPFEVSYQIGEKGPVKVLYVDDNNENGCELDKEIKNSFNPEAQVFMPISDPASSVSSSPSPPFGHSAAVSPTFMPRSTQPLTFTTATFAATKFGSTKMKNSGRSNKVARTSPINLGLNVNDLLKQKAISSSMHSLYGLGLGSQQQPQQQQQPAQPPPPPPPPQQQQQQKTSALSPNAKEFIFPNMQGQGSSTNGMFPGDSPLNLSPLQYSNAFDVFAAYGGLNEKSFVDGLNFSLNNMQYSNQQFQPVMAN

The target of assay [2] is T2, Gal4-DNA binding domain-TOB1 E105A (human) (UniProt P50616).
T2 sequence: T1 sequence with E105A

Assay [3] deals with T3, Gal4-DNA binding domain-TOB1 D95A (human) (UniProt P50616).
T3 sequence: T1 sequence with D95A

In assay [4] the target is T4, Gal4-DNA binding domain-TOB1 E98A (human) (UniProt P50616).
T4 sequence: T1 sequence with E98A

Assay [5] addresses Gal4DB-HA-BTG2 H53A (human) (UniProt P78543).
A further assay concerns the target Gal4DB-HA-BTG2 (human) (UniProt P78543).

As to “Gal4AD-Caf1a (from UniProt Q9UIV1 1-285) (enzyme)”, the binding entry in assay [1], in assay [2], in assay [3] and in assay [4] was “binds” in each case.

Regarding “Gal4AD-Caf1b (from UniProt Q9UFF9 1-292) (enzyme)”, the binding result in assay [1] is “binds”; in assay [2], “binds”; in assay [3], “binds”; in assay [4], “binds”; in assay [5], “no binding”; with Gal4DB-HA-BTG2 (human), “binds”.
